Source: the supplement of paper PMC3334620
Over roughly 33,000 sequences, “E-score (-0.5 to 0.5)” has its median near -0.041; the highest 2% begin near 0.37. This is one part of the list.

target: T1, Ecm22 (UniProt Q05958); test: PBM E-score (8-mer binding enrichment) (E-score (-0.5 to 0.5)); higher = stronger / more preferred TF binding; most listed sequences are background and not binding sites; conditions: protein concentration: 200 nM; construct: GST-full length
T1 sequence: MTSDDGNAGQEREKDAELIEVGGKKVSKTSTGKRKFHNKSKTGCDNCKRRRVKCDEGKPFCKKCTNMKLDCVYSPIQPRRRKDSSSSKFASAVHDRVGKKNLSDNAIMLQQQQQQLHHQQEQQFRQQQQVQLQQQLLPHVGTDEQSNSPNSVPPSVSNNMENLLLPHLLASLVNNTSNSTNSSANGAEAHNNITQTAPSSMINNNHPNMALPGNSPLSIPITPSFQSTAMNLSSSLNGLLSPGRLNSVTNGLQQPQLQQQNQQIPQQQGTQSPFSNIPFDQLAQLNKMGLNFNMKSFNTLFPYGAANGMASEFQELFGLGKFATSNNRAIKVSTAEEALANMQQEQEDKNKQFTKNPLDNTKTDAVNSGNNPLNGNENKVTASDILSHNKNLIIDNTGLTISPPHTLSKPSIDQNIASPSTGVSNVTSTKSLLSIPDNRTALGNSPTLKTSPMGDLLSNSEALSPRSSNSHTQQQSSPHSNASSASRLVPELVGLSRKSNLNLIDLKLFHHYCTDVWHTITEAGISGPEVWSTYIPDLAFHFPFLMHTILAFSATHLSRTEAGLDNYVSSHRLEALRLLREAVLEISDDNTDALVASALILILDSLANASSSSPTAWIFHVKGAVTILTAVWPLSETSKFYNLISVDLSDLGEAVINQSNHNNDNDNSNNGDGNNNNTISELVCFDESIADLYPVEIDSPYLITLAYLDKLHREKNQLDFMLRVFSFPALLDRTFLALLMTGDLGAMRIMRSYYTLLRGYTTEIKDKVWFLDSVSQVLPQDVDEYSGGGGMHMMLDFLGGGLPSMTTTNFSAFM
Summary of the method: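 Yeast transcription factors, full-length or as DNA-binding domains, were expressed with a GST tag using PURExpress in vitro transcription/translation. At about 100-200 nM they were applied to universal all-10-mer Agilent arrays, double-stranded by primer extension on fresh or once-stripped slides. Fluorescent anti-GST detected bound protein, and masliner normalised the scans. E-scores for ungapped eight-base words, pooled with reverse complements, came from the Universal PBM Analysis Suite.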

Point of comparison: CCGAGTAA, “PBM E-score” value 0.256. Against it:
- CATCTTAG — lower, -0.0868
- GTTTACCA — lower, 0.147
- ATCGATAG — lower, 0.00897
- AAGAGGGG — lower, -0.0791
- CCGCGTCG — lower, 0.135
- GCTTTAAA — lower, -0.0882
- GATAATAC — lower, 0.0704
- ACGCAGGA — lower, 0.108
- AATGTAAG — lower, 0.0738
- ATACATAT — lower, 0.173
- ACCCAATA — lower, -0.139
- AGCGCTGC — lower, -0.158
- ATAACATG — lower, -0.0341
- CAACACAA — lower, 0.0316
- ACGCCCTG — lower, -0.0148
- CATGCGCA — lower, -0.0944
- GCGCGGCC — lower, -0.114
- AATGGGCT — lower, -0.198
- TGGGGTAA — lower, 0.0699
- AACCGGAA — lower, 0.237
- CCGACGCA — lower, 0.00712
- ACGAAATC — higher, 0.285
- GAACATGC — lower, 0.00051
- AATTCAAT — lower, 0.0725
- ATCAGCAC — lower, -0.204
- CAATCGCC — lower, 0.0448
- AGCGATCG — lower, 0.246
- AGTCGAAC — lower, 0.0504
- CGCAAATA — lower, -0.00057
- CCCTCACC — lower, -0.212
- GGGCGTCA — lower, -0.286
- GCCGCCAA — lower, -0.0787
- GATTTCAC — lower, 0.0409
- AAGGGATC — lower, 0.112
- ATCCCGTA — higher, 0.362
- AGGAGCTA — lower, -0.138
- AGTCCAGA — lower, -0.227
- CGGAGATA — lower, 0.225
- CAGCACCG — lower, -0.0578
- ACAAATAC — lower, 0.152
- CGTCTCCA — lower, 0.076
- ATCGGGAC — lower, 0.0332
- TAACCCGA — lower, 0.215
- TACTACGA — higher, 0.347
- CCAGACAA — lower, -0.0404
- TAGGGTGA — lower, -0.0693
- TCCTCTAA — lower, -0.0974
- CTACCCTA — lower, -0.338
- CTGAAGAC — lower, 0.056
- ACGACTTA — higher, 0.345
- GGTCACAC — lower, -0.154
- GACTGCAC — lower, -0.108
- GGCATGCA — lower, -0.0522
- CTCATTAC — lower, 0.0181
- TCCGCCAA — lower, -0.121
- GTTTACAA — lower, 0.19
- ACTTGCTG — lower, -0.205
- ACGGCCTC — lower, 0.136
- ATTATACG — higher, 0.476
- ATGGACCC — lower, -0.193
- AACCCTAC — lower, -0.257
- GGCTCGTA — higher, 0.479
- CAGAGTGC — lower, -0.153
- CCCACCCC — lower, -0.0343
- AGCCTCTA — lower, -0.153
- ACATCTTG — lower, -0.0408
- AGATATTC — lower, -0.173
- AATAAACG — higher, 0.41
- AGGCCAAG — lower, -0.116
- CATGTGTA — lower, 0.0619
- AGGAGCAC — lower, -0.00417
- CGAATGCA — lower, 0.138
- AACAGGGA — lower, 0.00148
- ATCAGGGA — lower, -0.128
- AAGTTGGC — lower, -0.232
- ATGCTATG — lower, -0.105
- GCTGTTCC — lower, -0.132
- GTCCGTAA — lower, 0.169
- ATCTAGTA — lower, 0.175
- CCGGAGAA — lower, 0.0286
- CGTGTGAC — lower, -0.0109
- GCCATCCA — lower, -0.209
- GCACTCGA — lower, -0.0307
- CGAATAGA — lower, 0.0614
- CCTTGGCG — lower, -0.159
- CATAAGCG — lower, -0.0124
- ACCAGTTC — lower, 0.00324
- ACTTATTA — lower, -0.00971
- GAGCTTAA — lower, 0.0486
- AGGAGTAA — lower, -0.0246
- CCGGTACG — higher, 0.448
- CTTCCACC — lower, -0.197
- AAAGGCTT — lower, -0.177
- GATTCTTA — lower, 0.0436
- AATGTTGA — lower, -0.103
- TGATAGAA — lower, -0.116
- AAGTGCTG — lower, 0.0503
- GTATATTA — lower, 0.195
- ACTCATTC — lower, -0.0742
- AGGTCTAC — lower, -0.0135
- CGCTATCC — lower, 0.151
- TCTCCAAA — lower, -0.187
- CTGTCCTA — lower, -0.18
- AACAACCC — lower, 0.155
- GATTCGTA — higher, 0.45
- ATTCGTGC — lower, -0.00078
- CATCGAAG — lower, -0.0741
- AATTCTGG — lower, -0.165
- ACTCTAAG — lower, -0.283
- CGATTGCA — lower, 0.136
- ACTAGTCG — lower, -0.0405
- CCCCTTAG — lower, -0.15
- CCGAGCCG — lower, 0.227
- ATCAACCA — lower, -0.154
- CCGGTTAC — lower, 0.16
- GGTCCTAC — lower, -0.103
- ATGATCAA — lower, 0.0409
- ATTGCCCG — lower, 0.0752
- ATTCTTGA — lower, -0.0346
- TATTGAAA — lower, -0.0178
- GCTGATCA — lower, -0.0195
- CATGGCAG — lower, -0.153
- AGCGCTGA — lower, -0.0958
- CCGCAACA — lower, -0.0757
- CGCATCAG — lower, 0.0331
- CCGTTCTA — lower, 0.179
- TGAAGGAA — lower, -0.121
- CGCGCCAA — lower, 0.117
- ATATCACC — lower, 0.0983
- ACGGGTCG — higher, 0.267
- ATTTAATG — lower, 0.104
- ATGTAGCC — lower, -0.177
- ACATTGGA — lower, -0.209
- AGAGCCGC — lower, -0.197
- ACGAAGCT — higher, 0.313
- AAGCAACG — lower, 0.202
- AACCTAGA — lower, -0.0874
- GAACCGCA — lower, 0.00316
- ATGACTGA — lower, -0.233
- CTAGTGGA — lower, -0.21
- AATGCTAC — lower, -0.00666
- CGCATTCA — lower, 0.0952
- GTCTCTTA — lower, 0.0595
- AGAGGGCA — lower, -0.402
- GCGCCCAC — lower, -0.143
- ACGAAACT — higher, 0.369
- ATATACGA — higher, 0.49
- ATTCGTCC — lower, 0.0925
- CGCAGCGC — lower, -0.0542
- AAAGTGAG — lower, -0.0734
- ACATGTCT — lower, -0.102
- ATAGCGAC — lower, 0.225
- AAATCAAT — lower, -0.102
- AGGGTTAC — lower, -0.117
- CGGCCCCG — lower, -0.0779
- CTATCTAA — lower, -0.103
- GCAGGCAA — lower, -0.0787
- AGTCCAGG — lower, -0.315
- CGATGCAC — lower, 0.066
- CAACCGCG — lower, 0.0366
- AACAAGAT — lower, 0.0794
- AGGGTTTC — lower, -0.283
- CGGTTCCA — lower, 0.119
- GCTGTCAC — lower, -0.196
- GATCACAC — lower, -0.108
- CACTCTAG — lower, -0.165
- CCCGGAGG — lower, -0.219
- CTGAAAAA — lower, -0.117
- AGAACGGG — lower, 0.18
- ACACCGCC — lower, -0.0179
- ACAACGTA — lower, 0.132
